Data as given in PubChem BioAssay AID1347417 (National Center for Advancing Translational Sciences (NCATS), 2020).
Hit rate of the full screen: of about 120,000 compounds, about 5,300 (4.4%) were called active. The shares of active, inactive and inconclusive entries below differ from those in the screen. Calls come from the whole dose curve; as a rule, active = well fitted inhibition curve with a large enough effect; inconclusive = small, poorly fitted or top-dose-only effect; inactive = no such curve, though single readings can be large or run the other way. Where the call is inconclusive, the potency comes from a doubtful curve fit.

assay: qHTS Primary assay for Inhibitors of Plasmodium falciparum Dd2 growth in vitro; note: nearly all actives have a fitted effect of over 65% in size;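 for activity, negative = inhibition: plate controls were DMSO vehicle for no effect and reference drug for full effect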; details: P. falciparum Dd2 growth, SYBR Green, 72 h; activity, negative = inhibition: at 28.9 µM (top of the series) unless noted; series mostly up to 28.9 µM
In short: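 Readout: SYBR Green fluorescence, 485 nm excitation, 535 nm emission, after ~16 h lysis at 37C. Before that, Dd2-infected red cells (2.5% hematocrit) grew 72 h with compound, 29 uM top final concentration.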
Potency is the fitted concentration of half-maximal effect; tags give direction and shape of the fitted curve.

| SMILES | outcome | Potency | activity, negative = inhibition |
| --- | --- | --- | --- |
| Clc1ccc(-c2cnc([C@@H]3COCCN3C3CCNCC3)[nH]2)s1 | inactive [at 44.1 µM] | – | – |
| Cc1ccc(CN2C(=O)[C@@H]3C[C@@H](O)CN3C3(CN(CCC(C)C)C3)C2=O)o1 | – | active: 11.2 µM | – |
| Cc1ccc(C)c(N2CCN(C(c3ccc(F)cc3)c3nnc(-c4ccccc4)o3)CC2)c1 (centres undefined) | – | inconclusive: 11.2 µM [inhibitor, single point] | – |
| Cc1cc2cc(C(=O)N3CCCC(OCc4ccccn4)C3)ccc2o1 (centres undefined) | inactive | – | – |
| O=C(NCCOc1cccc2cccnc12)C1CCCN(C2CCCC2)C1 (centres undefined) | – | inconclusive: 10 µM [inhibitor, partial curve, poor fit] | – |
| Cc1ccccc1CSc1cn(CC(=O)N2CCCC2)c2ccccc12 | – | inconclusive: 17.8 µM [inhibitor, single point] | – |
| COc1ccc(NC(=O)c2sc3nc(C)c(C(=O)Nc4ccc(C)cc4C)c(-c4cccs4)c3c2N)cc1 | – | inconclusive: 2.82 µM [inhibitor, full curve, poor fit] | – |
| Cc1nc(CCNC(=O)NC2CCCCC2)no1 | – | – | inactive: 7.66% |
| Cc1ccccc1C(=O)N1CCC2(CC1)NC(=O)N(c1ccc(F)cc1)N2 | – | inconclusive: 1 µM [inhibitor, full curve, poor fit] | – |
| COc1ccccc1OCCCN1CCN(Cc2ccccc2)CC(O)C1 (centres undefined) | – | inconclusive: 3.16 µM [inhibitor, full curve] | – |
| Cc1ccc(N(CC(=O)N2CCN(c3cc(Cl)ccc3C)CC2)S(=O)(=O)c2c(C)noc2C)cc1 | – | inconclusive: 10 µM [inhibitor, partial curve] | – |
| Clc1ccc(-c2nc3ccccn3c2Nc2ccc3c(c2)OCCO3)s1 | – | inconclusive: 17.8 µM [inhibitor, single point] | – |
| CCOC(=O)c1cnc2ccccc2c1Nc1ccc(N2CCOCC2)cc1 | – | – | inactive: 27.8% |
| CC1=C[C@@H](CNC(=O)CCCC(=O)O)[C@H](C(C)C)C[C@H]1Cc1nc2ccncc2[nH]1 | – | inconclusive: 11.2 µM [inhibitor, partial curve, poor fit] | – |
| Cc1cccc(N2CCN(c3ncnc4c3c(-c3ccccc3)cn4-c3ccccc3)CC2C)c1 (centres undefined) | – | inconclusive: 17.8 µM [inhibitor, single point] | – |
| COc1ccc(-n2nc3n(c2=O)CCN(Cc2ccc(NC(C)=O)cc2)C3)cc1 | – | – | inactive: -17% |
| CCCS(=O)(=O)NC[C@@H]1C=C(C)[C@H](Cc2nnc(-c3ccccc3F)o2)C[C@H]1C(C)C | – | inconclusive: 5.62 µM [inhibitor, partial curve, poor fit] | – |
| CN(Cc1cccc2ccccc12)C1CCOc2ccccc21 (centres undefined) | – | inconclusive: 15.8 µM [inhibitor, partial curve, poor fit] | – |
| CN1CCC(N2CC3(C2)C(=O)N(C)C(=O)[C@@H]2C[C@@H](O)CN23)CC1 | – | – | inactive: 15.1% [at 44.1 µM] |
| COC1C(=O)N(C2CCN(C(=O)C3CC3)CC2)C12CCOCC2 (centres undefined) | – | – | inactive: 18% |
| O=C(NCC1CCCO1)c1ccc2c(c1)CC(=O)N2Cc1ccccc1 (centres undefined) | – | inconclusive: 2.24 µM [inhibitor, partial curve] | – |
| C[C@@]1(O)CCN(CC(=O)N2CCOc3ccccc32)C[C@@H]1O | – | – | inactive: -7.66% |

| SMILES | outcome | Potency | activity, negative = inhibition |
| --- | --- | --- | --- |
| O=C1CCC(C(=O)N2CCN(c3ccc(Cl)cn3)CC2)CN1CCc1ccccn1 (centres undefined) | – | – | inactive: -13.1% |
| CCCOc1ccc(CN2CCCC(COc3ccccc3C(=O)NC3CC3)C2)cc1 (centres undefined) | – | inconclusive: 2.24 µM [inhibitor, single point] | – |
| O=C(O)C1CC2(CCN(C(=O)Cc3ccc4c(c3)OCO4)CC2)CN1 (centres undefined) | – | – | inactive: -9.74% |
| COCC1CN(C(C)=O)CC12CCN(C(=O)c1cc(Cl)ccc1OC)CC2 (centres undefined) | – | inconclusive: 5.62 µM [inhibitor, partial curve, poor fit] | – |
| COc1ccccc1CN1CCC2(CC1)OC(=O)N(Cc1ccc(NC(C)=O)cc1)C2(C)c1ccccc1 (centres undefined) | – | active: 12.6 µM | – |
| COc1ccccc1CC(=O)N1CCC(n2nccc2NC(=O)c2ccccc2C)CC1 | – | – | inactive: -18.4% |
| COc1ccc2[nH]c3c(c2c1)CCN(C)C31CCN(C(=O)c2ccccn2)CC1 | – | – | inactive: -3.53% |
| O=C(NCCc1c[nH]c2ccccc12)c1cnc2c(c1)N([S+](=O)([O-])c1cccnc1)CCC2 | inactive | – | – |
| CCOc1ccc(CCNC(=O)c2cc3c(=O)n(C)c4ccccc4c3n2C)cc1 | – | inconclusive: 17.8 µM [inhibitor, single point] | – |
| Cc1cccc(CNC(=O)c2cc3c(N(C)Cc4ccccc4)nc(C)cn3n2)c1 | – | inconclusive: 7.94 µM [inhibitor, partial curve, poor fit] | – |
| CCn1c(CNC(=O)C23CC4CC(CC(C4)C2)C3)nnc1SCC(=O)Nc1ccc(F)cc1 | – | inconclusive: 20 µM [inhibitor, partial curve, poor fit] | – |
| Cc1cc(C)n(CCC(=O)N2CCCC2c2nc(C3CCOCC3)no2)n1 (centres undefined) | – | – | inactive: 14.3% |
| Cc1cccc(C(=O)N2CCCCCCNC(=O)[C@@H]3C[C@@H](C(=O)N4CCc5ccccc5C4)C[C@@H]32)c1 | – | inconclusive: 1.58 µM [inhibitor, full curve, poor fit] | – |
| O=C(COc1ccccc1F)Nc1ccc(Cl)c(-c2nc3ccccc3[nH]2)c1 | – | inconclusive: 17.8 µM [inhibitor, single point] | – |
| O=C(NCCc1ccccc1)Nc1cccc(-c2nnc3n2CCCC3)c1 | – | inconclusive: 3.98 µM [inhibitor, single point] | – |
| Cc1cc(C)c(/C=C/c2onc(C)c2S(=O)(=O)N2CCC(C(=O)Nc3ccc(Cl)c(C(F)(F)F)c3)CC2)c(C)c1 | – | inconclusive: 1.78 µM [inhibitor, full curve] | – |
| COC(=O)C1CCN([C@H]2[C@@H]3OC[C@@H](O3)[C@@H](NC(=O)Nc3ccc(F)cc3)[C@@H]2O)CC1 | – | – | inactive: 13.2% [at 44.1 µM] |
| CCC(=O)N1CCCC(c2nc(-c3cccnc3)no2)CCNC(=O)CC1 (centres undefined) | – | – | inactive: 8.95% |
| COCc1noc([C@@H]2CN(C3CCN(CC(C)C)CC3)C[C@H]2CO)n1 | – | – | inactive: 22.5% |
| O=C(NCCc1ccc(Cl)cc1)c1cc(-c2cnccc2Cl)c2cccn2n1 | – | – | inactive: -4.32% |
| CN(C)C(=O)N1CCCC(c2nnc3n2CCNC3)C1 (centres undefined) | – | – | inactive: -2.35% |
| CC1=C(c2ccc(C)c(C)c2)S(=O)(=O)N=C1N1CCC(C(=O)NCc2ccc(Cl)cc2)CC1 | – | inconclusive: 8.91 µM [inhibitor, single point] | – |
